# The whole screen tested about 310,000 compounds, of which about 14,000 (4.5%) showed an effect of 50% or more. The effect is printed as a negative number. The list shows a part of the results.
# Target: human ether-à-go-go-related gene (hERG) potassium channel (human, UniProt Q12809)
# Test: primary screen, population patch clamp on CHO cells stably expressing hERG
# 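Also: peak tail current of the secondary pulse compared with the same well before compound.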
# human ether-à-go-go-related gene (hERG) potassium channel, sequence (Q12809 whole entry, looked up): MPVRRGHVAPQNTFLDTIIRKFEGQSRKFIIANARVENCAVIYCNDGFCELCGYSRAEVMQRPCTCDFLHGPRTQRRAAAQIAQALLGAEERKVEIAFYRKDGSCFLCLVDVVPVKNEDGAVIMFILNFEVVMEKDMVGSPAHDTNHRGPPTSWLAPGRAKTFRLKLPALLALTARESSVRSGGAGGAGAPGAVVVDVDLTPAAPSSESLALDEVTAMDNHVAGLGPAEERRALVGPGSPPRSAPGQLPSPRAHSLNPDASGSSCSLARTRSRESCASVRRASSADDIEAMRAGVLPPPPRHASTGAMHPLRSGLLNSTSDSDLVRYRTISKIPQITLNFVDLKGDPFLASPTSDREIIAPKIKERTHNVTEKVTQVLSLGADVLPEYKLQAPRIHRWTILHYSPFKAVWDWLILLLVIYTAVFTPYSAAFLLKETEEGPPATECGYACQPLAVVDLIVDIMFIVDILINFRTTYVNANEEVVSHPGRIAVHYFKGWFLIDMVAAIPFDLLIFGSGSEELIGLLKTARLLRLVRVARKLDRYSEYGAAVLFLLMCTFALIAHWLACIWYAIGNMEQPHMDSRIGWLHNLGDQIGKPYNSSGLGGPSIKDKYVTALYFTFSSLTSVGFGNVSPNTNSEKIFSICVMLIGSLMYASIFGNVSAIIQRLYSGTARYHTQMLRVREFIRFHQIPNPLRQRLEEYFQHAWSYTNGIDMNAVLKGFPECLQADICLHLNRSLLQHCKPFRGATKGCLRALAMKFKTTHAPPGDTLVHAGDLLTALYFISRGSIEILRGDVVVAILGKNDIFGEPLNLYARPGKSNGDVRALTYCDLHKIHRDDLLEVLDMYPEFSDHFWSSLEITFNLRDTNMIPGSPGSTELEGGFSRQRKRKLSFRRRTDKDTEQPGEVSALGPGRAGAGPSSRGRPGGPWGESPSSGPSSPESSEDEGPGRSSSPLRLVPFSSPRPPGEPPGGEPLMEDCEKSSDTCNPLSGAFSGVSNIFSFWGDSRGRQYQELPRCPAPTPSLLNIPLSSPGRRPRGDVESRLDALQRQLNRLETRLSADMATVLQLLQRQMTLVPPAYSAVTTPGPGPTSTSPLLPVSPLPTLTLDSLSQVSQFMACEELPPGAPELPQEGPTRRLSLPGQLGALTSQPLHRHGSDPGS
row,SMILES,"hERG current change (%, negative = inhibition) at 10uM"
1,COc1ccc(-c2ccnc(SCC(=O)N3CCOCC3)n2)cc1,0.946%
2,Cc1c(C(=O)N/N=C/c2cccnc2)sc(=S)n1C,-9.11%
3,CC(C)(C)c1ccc(C(=O)NC(=S)NCc2cccnc2)cc1,-22.9%
4,Cc1cc(C)c2cc(CN(CCN(C)C)C(=O)Nc3ccccc3Cl)c(=O)[nH]c2c1,-55.3%
5,O=C(COC(=O)c1ccc(CN2CCCC2=O)cc1)Nc1ccc(F)cc1,-18.8%
6,Cc1ccc(C)c(/C=C2\CCn3c2nc2cc(C(=O)O)ccc2c3=O)c1,10.2%
7,Nc1ccc(Oc2ncccn2)c(Cl)c1,10.3%
8,O=C(Nc1cccc2ccccc12)N1CC=CCC1,6.13%
9,O=C(c1ccccc1)N1CCN(CC#CC2(O)CCCCC2)CC1,21%
10,COc1cc(CNCCO)cc(Cl)c1OCc1ccc(Cl)cc1Cl.Cl,-7.34%
11,CCOC(=O)/C(C#N)=C(\N)C(C)C(=O)Nc1ccccn1 (stereo not shown),5.17%
12,CCN(Cc1ccncc1)C(=O)c1cc(Br)cc(Br)c1O,0.759%
13,O=C(COC(=O)c1ccc(Br)o1)NCC(=O)Nc1ccc(F)cc1,0.699%
14,Cc1nn(CC(=O)Nc2ccc3c(c2)OCO3)c(C)c1[N+](=O)[O-],-5.55%
15,CCCN(CCC)CCCNC(=O)c1cn(CC)c2ccc(S(=O)(=O)N(C)C3CCCCC3)cc2c1=O,-74.3%
16,CCn1c(C)nc2cc(C(N)=O)ccc21,19.5%
17,Cc1cc(Nc2ccccc2)n(C(=O)c2ccc(N)cc2)n1,-10.9%
18,CC1CCN(C(=O)C2CCN(S(=O)(=O)c3cnc[nH]3)CC2)CC1,6.99%
19,CCOC(=O)N1CC=C2C(C#N)=C(N)C(C#N)(C#N)[C@H](c3cccs3)[C@H]2C1,-18.4%
20,Cc1ccc(S(=O)(=O)N2CCCCC2)cc1C(=O)NCCc1ccccc1,11.2%
21,Cc1ccc(NC(=O)c2ccc(=O)[nH]c2)cc1S(=O)(=O)N1CCCCC1,-17.9%
22,CCOC(=O)c1cc2c(ccn2-c2ccc(F)cc2)n1CC(=O)N(CC)CC,-8.91%
23,Cn1c(=O)n(Cc2ccccc2)c(=O)c2c1nc1n2CCCN1C1CCCCC1,-6.46%
24,Cc1cc(N)c(-n2cc3c(=O)n(C)c(=O)n(C)c3c2)cc1C,-1.57%
25,COc1ccc(-c2cc(C(=O)N/N=C/c3cccnc3)c3cc(C)cc(C)c3n2)cc1,15%
